# Test results reported in PubChem BioAssay AID686979 (National Center for Advancing Translational Sciences (NCATS), 2013).
# Out of some 420,000 compounds screened, about 50,000 (12%) were called active. The shares of active, inactive and inconclusive entries below differ from those in the screen. The call rests on the fitted dose curve; in most records, active means well fitted inhibition curve with a large enough effect; inconclusive means small, poorly fitted or top-dose-only effect; inactive means flat fitted curve, though single readings scatter. Potencies of inconclusive entries are left out as doubtful fits.
# Experiment: qHTS for Inhibitors of human tyrosyl-DNA phosphodiesterase 1 (TDP1): qHTS in cells in presence of CPT; further: nearly all actives have a fitted effect of over 55% in size
# Details: chicken DT40 Tdp1-/-;hTDP1 cells + 20 nM CPT, ATP luminescence, 48 h; series mostly up to 46.2 µM
# Outline: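 Chicken DT40 Tdp1-/- cells complemented with human TDP1, 400 cells/well, exposed to compounds plus 20 nM camptothecin for at least 48 h at 37 C; viability read as ATP content by CellTiter-Glo luminescence.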
# Potency means the concentration at half of the fitted maximal effect; tags describe the fitted curve by direction and shape.
row,Structure (SMILES),Potency
1,C[C@H]1CCC(=O)N([C@H](CSc2ccccc2)Cc2ccccc2)CC1,"inconclusive [inhibitor, single point]"
2,COc1cccc(OCc2cc(C(=O)NC(C)c3cnn(C)c3C)no2)c1 (stereo not given),"inconclusive [inhibitor, single point]"
3,O=C(CC1N=C2c3ccccc3N=C(SCc3cccc(Cl)c3)N2C1=O)NC1CCCCC1 (stereo not given),active: 16.4 µM
4,CO[C@H]1CN(C)C(=O)c2ccc(NC(=O)c3ccc4c(c3)OCO4)cc2OC[C@H](C)N(CC2CC2)C[C@@H]1C,"inconclusive [inhibitor, single point]"
5,Cc1ccc(NS(=O)(=O)c2ccc(C(=O)N3CCOCC3)cc2)cc1,"inconclusive [inhibitor, single point]"
6,Cc1nc2scc(C)n2c(=O)c1S(=O)(=O)N1CCN(c2ccccc2F)CC1,"inconclusive [inhibitor, single point]"
7,CCCCN(CCCC)CC(O)COc1ccccc1C(=O)Nc1ccccc1 (stereo not given),"inconclusive [inhibitor, single point]"
8,CCn1c(SCC(=O)NC2CC2)nnc1-c1ccc(F)cc1,inactive
9,CCc1nnc2c(N(C)C)nc3ccccc3n12,inactive
10,N#Cc1c(N)c(C(=O)c2ccccc2)n2ccccc12,inactive
11,COCCn1c(SCC(=O)Nc2ccc(Cl)c(S(=O)(=O)N(C)C)c2)nc2ccccc21,"inconclusive [inhibitor, partial curve]"
12,CCCC(=O)N1CCC1(C)C(=O)NS(=O)(=O)c1cccs1 (stereo not given),inactive
13,COc1ccc(/C=N/NC(=O)c2ccc(=O)n(C)c2)cc1OC,inactive
14,Cc1cc2n(n1)CCCN2C(=O)Nc1ccccc1F,inactive
15,C=CCN=C1SCC(=O)N1S(=O)(=O)c1ccccc1,inactive
16,CC(C)(C)NC(=O)NC(=O)COC(=O)C1(C)CC1(Cl)Cl (stereo not given),inactive
17,Cc1cc(C)cc(N2C(=O)CC(Sc3nnnn3-c3ccccc3)C2=O)c1 (stereo not given),active: 2.59 µM
18,CN(C)c1ccc(CNCc2cccnc2)cc1,inactive
19,COC(=O)Sc1nc(N2CCOCC2)c2c(c1C#N)CC(C)(C)OC2,active: 25.9 µM
20,C(=N\Nc1nc(Nc2ccccc2)nc(Nc2ccccc2)n1)/c1cccnc1,active: 16.4 µM
21,Cc1cc(C)c(-n2c(SCCS(=O)(=O)c3ccc(F)cc3)n[nH]c2=O)c(C)c1,active: 25.9 µM
22,COc1cccc(CNC(=O)[C@@H]2CCCN2C(=O)[C@@H]2CCCN2C(=O)OC(C)(C)C)c1,inactive
23,CCOC(=O)c1sc2nc(SC)nc(-c3ccc(Cl)cc3)c2c1N,active: 20.6 µM
24,CCOC(=O)c1cc(-c2ccc(OC)cc2)nn1-c1ccc(C(=O)O)cc1,inactive
25,COc1ccc(NC(=S)Nc2ccccc2C(F)(F)F)cc1,inactive

row,Structure (SMILES),Potency
1,Cc1ccc(-n2cccn2)c(CN2CCCC(CNC(=O)c3ccc(F)cc3)C2)c1 (stereo not given),"inconclusive [inhibitor, single point]"
2,O=C1COc2ccc(S(=O)(=O)NCCc3ccccc3)cc2N1,inactive
3,OC1CCCN(CC(O)COc2ccc(-c3ccccc3)cc2)C1 (stereo not given),"inconclusive [inhibitor, single point]"
4,CCc1ccccc1NC(=O)CC(C)n1nc(C)cc1C (stereo not given),inactive
5,O=C(NC1CCCCC1)C(Cc1ccccc1)NS(=O)(=O)c1cccs1 (stereo not given),inactive
6,Nc1c(Cl)cc(/C=C2\C=Cc3ccccc32)cc1Cl,"inconclusive [inhibitor, single point]"
7,CC(=O)OCC(=O)C1(O)CCC2C3CC(C)C4=CC(=O)C=CC4(C)C3=CCC21C (stereo not given),"inconclusive [inhibitor, partial curve, poor fit]"
8,CC(NC(=O)Nc1ccccc1O)(C(F)(F)F)C(F)(F)F,"inconclusive [inhibitor, single point]"
9,CCOC(=O)c1c(S(=O)(=O)N2CCN(c3ccccc3OC)CC2)c(C)n(C)c1C,"inconclusive [inhibitor, single point]"
10,COc1ccc(CCN=C(N)NS(=O)(=O)c2ccc(F)cc2)cc1OC,"inconclusive [inhibitor, single point]"
11,COc1cccc(C(=O)Nc2ccccc2-c2nc(-c3ccc(C)cc3)no2)c1,inactive
12,COc1ccccc1CN1CCN(C(CC(C)C)c2nnnn2Cc2cccs2)CC1 (stereo not given),active: 18.4 µM
13,Cc1ccc(CN2CC(N3CCC(c4ccccc4)CC3)CS2(=O)=O)cc1 (stereo not given),"inconclusive [inhibitor, single point]"
14,CC1CCc2c(sc(NC(=O)c3ccco3)c2C(=O)O)C1 (stereo not given),"inconclusive [inhibitor, single point]"
15,c1ccc(N2CCN(c3ncnc4[nH]ncc34)CC2)cc1,"inconclusive [inhibitor, single point]"
16,CC(=O)OCC(=O)[C@@]1(O)CCC2C3CC(C)C4=CC(=O)C=CC4(C)C3C(O)CC21C (stereo not given in full),inactive
17,CCCCS(=O)(=O)N1CCN(S(=O)(=O)c2cccs2)CC1,inactive
18,O=[N+]([O-])c1ccc(-c2c(O)c3ccccc3c3nc4ccccc4nc23)cc1,"inconclusive [inhibitor, full curve]"
19,O=C1NC2CCCCC2C(=O)N1OS(=O)(=O)c1ccccc1 (stereo not given),active: 2.59 µM
20,N#Cc1ccc(S(=O)(=O)N2CCN(c3nc(-c4cccs4)nc4ccccc34)CC2)cc1,"inconclusive [inhibitor, partial curve, poor fit]"
21,CN1CCCNc2nc3ccccc3nc21,inactive
22,CC(=O)c1cccc(NC(=O)c2sc3nc4c(cc3c2N)CCCC4)c1,"inconclusive [inhibitor, single point]"
23,COc1ccc(N(CC(=O)Nc2ccc(S(=O)(=O)N3CCOCC3)cc2)S(=O)(=O)c2ccc(F)cc2)cc1,"inconclusive [inhibitor, single point]"
24,CCN(C(=O)COC(=O)C1CCC(C(C)(C)C)CC1)c1c(N)n(Cc2ccccc2)c(=O)[nH]c1=O (stereo not given),active: 20.6 µM
25,Nc1nonc1-n1nnc(C(=O)N/N=C/c2ccc(OCc3ccccc3F)cc2)c1CN1CCCCC1,"inconclusive [inhibitor, single point]"
